Target: Recombinant human cathepsin S (CatS) (Homo sapiens, UniProt P25774)
Test: biochemical

| Structure (SMILES) | IC50 [nM] |
| --- | --- |
| CC(=O)N1CCc2c(c(-c3ccc(Cl)c(C)c3)nn2CC(O)CN2CCC(c3c[nH]c4ccccc34)CC2)C1 (stereo not drawn) [Example 101, 1-(3-(4-Chloro-3-methyl-phenyl)-1-{2-hydroxy-3-[4-(1H-indol-3-yl)-piperidin-1-yl]-propyl}-1,4,6,7-tetrahydro-pyrazolo[4,3-c]pyridin-5-yl)-ethanone] | 250 |
| CS(=O)(=O)N1CCc2c(c(-c3ccc(C(F)(F)F)cc3)nn2CC(O)CN2CCC(c3cn(S(C)(=O)=O)c4cc(Cl)ccc34)CC2)C1 (stereo not drawn) [Example 106, 1-[4-(6-Chloro-1-methanesulfonyl-1H-indol-3-yl)-piperidin-1-yl]-3-[5-methanesulfonyl-3-(4-trifluoromethyl-phenyl)-4,5,6,7-tetrahydro-pyrazolo[4,3-c]pyridin-1-yl]-propan-2-ol] | 200 |
| CC(=O)N1CCc2c(c(-c3ccc(Br)cc3)nn2CC(O)CN2CCC(c3c[nH]c4ncccc34)CC2)C1 (stereo not drawn) [Example 113, 1-(3-(4-Bromo-phenyl)-1-{2-hydroxy-3-[4-(1H-pyrrolo[2,3-b]pyridin-3-yl)-piperidin-1-yl]-propyl}-1,4,6,7-tetrahydro-pyrazolo[4,3-c]pyridin-5-yl)-ethanone] | 200 |
| CS(=O)(=O)N1CCc2c(c(-c3ccc(C(F)(F)F)cc3)nn2CCCN2CC=C(c3c[nH]c4ncccc34)CC2)C1 [Example 115, 5-Methanesulfonyl-1-{3-[4-(1H-pyrrolo[2,3-b]pyridin-3-yl)-3,6-dihydro-2H-pyridin-1-yl]-propyl}-3-(4-trifluoromethyl-phenyl)-4,5,6,7-tetrahydro-1H-pyrazolo[4,3-c]pyridine] | 590 |
| CC(=O)N1CCc2c(c(-c3ccc(Br)cc3)nn2CC(O)CN2CCC(c3cn(CCN4CCOCC4)c4ncccc34)CC2)C1 (stereo not drawn) [Example 118, 1-[3-(4-Bromo-phenyl)-1-(2-hydroxy-3-{4-[1-(2-morpholin-4-yl-ethyl)-1H-pyrrolo[2,3-b]pyridin-3-yl]-piperidin-1-yl}-propyl)-1,4,6,7-tetrahydro-pyrazolo[4,3-c]pyridin-5-yl]-ethanone] | 260 |
| COC(=O)n1cc(C2CCN(CC(O)Cn3nc(-c4ccc(C(F)(F)F)cc4)c4c3CCN(S(C)(=O)=O)C4)CC2)c2ccc(Cl)nc21 (stereo not drawn) [Example 119, 6-Chloro-3-(1-{2-hydroxy-3-[5-methanesulfonyl-3-(4-trifluoromethyl-phenyl)-4,5,6,7-tetrahydro-pyrazolo[4,3-c]pyridin-1-yl]-propyl}-piperidin-4-yl)-pyrrolo[2,3-b]pyridine-1-carboxylic acid methyl ester] | 690 |
| CS(=O)(=O)N1CCc2c(c(-c3ccc(C(F)(F)F)cc3)nn2CC(O)CN2CCC(c3c[nH]c4nc(Cl)ccc34)CC2)C1 (stereo not drawn) [Example 120, 1-[4-(6-Chloro-1H-pyrrolo[2,3-b]pyridin-3-yl)-piperidin-1-yl]-3-[5-methanesulfonyl-3-(4-trifluoromethyl-phenyl)-4,5,6,7-tetrahydro-pyrazolo[4,3-c]pyridin-1-yl]-propan-2-ol] | 250 |
| CC(=O)N1CCc2c(c(-c3ccc(Br)cc3)nn2CC(O)CN2CCC(c3c[nH]c4ccncc34)CC2)C1 (stereo not drawn) [Example 125, 1-(3-(4-Bromo-phenyl)-1-{2-hydroxy-3-[4-(1H-pyrrolo[3,2-c]pyridin-3-yl)-piperidin-1-yl]-propyl}-1,4,6,7-tetrahydro-pyrazolo[4,3-c]pyridin-5-yl)-ethanone] | 210 |
| COC(=O)c1oc2cc(F)ccc2c1C1CCN(CC(O)Cn2nc(-c3ccc(C(F)(F)F)cc3)c3c2CCN(C(C)=O)C3)CC1 (stereo not drawn) [Example 128, 3-(1-{3-[5-Acetyl-3-(4-trifluoromethyl-phenyl)-4,5,6,7-tetrahydro-pyrazolo[4,3c]pyridin-1-yl]-2-hydroxy-propyl}-piperidin-4-yl)-6-fluoro-benzofuran-2-carboxylic acid methyl ester] | 230 |
| CC(=O)N1CCc2c(c(-c3ccc(C(F)(F)F)cc3)nn2CC(O)CN2CCC(c3coc4cc(F)ccc34)CC2)C1 (stereo not drawn) [Example 131, 1-[1-{3-[4-(6-Fluoro-benzofuran-3-yl)-piperidin-1-yl]-2-hydroxy-propyl}-3-(4trifluoromethyl-phenyl)-1,4,6,7-tetrahydro-pyrazolo[4,3-c]pyridin-5-yl]-ethanone] | 370 |
| CN(C)C(=O)c1sc2cc(F)ccc2c1C1CCN(CCCn2nc(-c3ccc(C(F)(F)F)cc3)c3c2CCN(S(C)(=O)=O)C3)CC1 [Example 133, 6-Fluoro-3-(1-{3-[5-methanesulfonyl-3-(4-trifluoromethyl-phenyl)-4,5,6,7-tetrahydro-pyrazolo[4,3-c]pyridin-1-yl]-propyl}-piperidin-4-yl)-benzo[b]thiophene-2-carboxylic acid dimethylamide] | 380 |
| CC(=O)N1CCc2c(c(-c3ccc(C(F)(F)F)cc3)nn2CC(O)CN2CCC(c3c(C#N)sc4cc(F)ccc34)CC2)C1 (stereo not drawn) [Example 134, 3-(1-{3-[5-Acetyl-3-(4-trifluoromethyl-phenyl)-4,5,6,7-tetrahydro-pyrazolo[4,3-c]pyridin-1-yl]-2-hydroxy-propyl}-piperidin-4-yl)-6-fluoro-benzo[b]thiophene-2-carbonitrile] | 380 |
| CS(=O)(=O)N1CCc2c(c(-c3ccc(C(F)(F)F)cc3)nn2CC(O)CN2CCC(c3c(C#N)sc4cc(F)ccc34)CC2)C1 (stereo not drawn) [Example 135, 6-Fluoro-3-(1-{2-hydroxy-3-[5-methanesulfonyl-3-(4-trifluoromethyl-phenyl)-4,5,6,7-tetrahydro-pyrazolo[4,3-c]pyridin-1-yl]-propyl}-piperidin-4-yl)-benzo[b]thiophene-2-carbonitrile] | 210 |

Molecules with a lower IC50, results first:

| IC50 [nM] | Structure (SMILES) |
| --- | --- |
| 190 | CS(=O)(=O)N1CCc2c(c(-c3ccc(C(F)(F)F)cc3)nn2CC(O)CN2CCC(c3csc4cc(F)ccc34)CC2)C1 (stereo not drawn) [Example 130, 1-[4-(6-Fluoro-benzo[b]thiophen-3-yl)-piperidin-1-yl]-3-[5-methanesulfonyl-3-(4trifluoromethyl-phenyl)-4,5,6,7-tetrahydro-pyrazolo[4,3-c]pyridin-1-yl]-propan-2-ol] |
| 160 | CS(=O)(=O)N1CCc2c(c(-c3ccc(C(F)(F)F)cc3)nn2CCCN2CCC(c3c[nH]c4ccc(Cl)cc34)CC2)C1 [Example 103, 1-{3-[4-(5-Chloro-1H-indol-3-yl)-piperidin-1-yl]-propyl}-5-methanesulfonyl-3-(4-trifluoromethyl-phenyl)-4,5,6,7-tetrahydro-1H-pyrazolo[4,3-c]pyridine] |
| 150 | CC(=O)N1CCc2c(c(-c3ccc(C(F)(F)F)cc3)nn2CC(O)CN2CCC(c3c[nH]c4ccncc34)CC2)C1 (stereo not drawn) [Example 123, 1-[1-{2-Hydroxy-3-[4-(1H-pyrrolo[3,2-c]pyridin-3-yl)-piperidin-1-yl]-propyl}-3-(4-trifluoromethyl-phenyl)-1,4,6,7-tetrahydro-pyrazolo[4,3-c]pyridin-5-yl]-ethanone] |
| 130 | CS(=O)(=O)N1CCc2c(c(-c3ccc(Br)cc3)nn2CC(O)CN2CCC(c3c[nH]c4ncccc34)CC2)C1 (stereo not drawn) [Example 112, 1-[3-(4-Bromo-phenyl)-5-methanesulfonyl-4,5,6,7-tetrahydro-pyrazolo[4,3-c]pyridin-1-yl]-3-[4-(1H-pyrrolo[2,3-b]pyridin-3-yl)-piperidin-1-yl]-propan-2-ol] |
| 100 | CS(=O)(=O)N1CCc2c(c(-c3ccc(Br)cc3)nn2CC(O)CN2CCC(c3cn(CCN4CCOCC4)c4ncccc34)CC2)C1 (stereo not drawn) [Example 117, 1-[3-(4-Bromo-phenyl)-5-methanesulfonyl-4,5,6,7-tetrahydro-pyrazolo[4,3-c]pyridin-1-yl]-3-{4-[1-(2-morpholin-4-yl-ethyl)-1H-pyrrolo[2,3-b]pyridin-3-yl]-piperidin-1-yl}-propan-2-ol] |
| 80 | CS(=O)(=O)N1CCc2c(c(-c3ccc(Br)cc3)nn2CC(O)CN2CCC(c3cn(CCN4CCOCC4)c4cc(Cl)ccc34)CC2)C1 (stereo not drawn) [Example 109, 1-[3-(4-Bromo-phenyl)-5-methanesulfonyl-4,5,6,7-tetrahydro-pyrazolo[4,3-c]pyridin-1-yl]-3-{4-[6-chloro-1-(2-morpholin-4-yl-ethyl)-1H-indol-3-yl]-piperidin-1-yl}-propan-2-ol] |
| 40 | CS(=O)(=O)N1CCc2c(c(-c3ccc(Br)cc3)nn2CC(O)CN2CCC(c3c[nH]c4ccc(C#N)cc34)CC2)C1 (stereo not drawn) [Example 108, 3-(1-{3-[3-(4-Bromo-phenyl)-5-methanesulfonyl-4,5,6,7-tetrahydro-pyrazolo[4,3-c]pyridin-1-yl]-2-hydroxy-propyl}-piperidin-4-yl)-1H-indole-5-carbonitrile] |
| 30 | CS(=O)(=O)N1CCc2c(c(-c3ccc(C(F)(F)F)cc3)nn2CCCN2CCC(c3c(C(N)=O)sc4cc(F)ccc34)CC2)C1 [Example 35, 6-Fluoro-3-(1-{3-[5-methanesulfonyl-3-(4-trifluoromethyl-phenyl)-4,5,6,7-tetrahydro-pyrazolo[4,3-c]pyridin-1-yl]-propyl}-piperidin-4-yl)benzo[b]thiophene-2-carboxylic acid amide] |
